# Some of the results follow.
# Test system: T1, Caupolican (Caup) homeodomain DNA-binding domain
# T1 sequence: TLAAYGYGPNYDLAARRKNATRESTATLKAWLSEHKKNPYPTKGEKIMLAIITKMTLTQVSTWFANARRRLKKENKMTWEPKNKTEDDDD
# Assay: PBM E-score (8-mer, recovered from the published 9-mer minima) (E-score (dimensionless, -0.5 to 0.5)); Drosophila protein; higher = stronger relative binding preference, active = 0.31 or more
# In short: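 Caup's homeodomain DNA-binding domain (residues 214-303) was made by in vitro transcription and translation and applied at 100 nM to custom-designed protein binding microarrays. Each value is an enrichment score that gives relative binding preference for a short DNA word, with higher meaning stronger. The 8-mer values were recovered from published 9-mer scores, each of which was the minimum of its two constituent 8-mer scores. A cutoff of 0.31 marks candidate sites.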
row,Sequence,PBM E-score
1,CCATGCCC,inactive: -0.207
2,CTGCGCAG,inactive: -0.162
3,ATCTTCTC,inactive: -0.106
4,CCTGGATC,inactive: -0.107
5,CTCACGCA,inactive: -0.056
6,GGTATAGA,inactive: 0.0474
7,CGGTGTAA,inactive: 0.185
8,AAAGTATT,inactive: 0.131
9,CACGCGCC,inactive: -0.0843
10,ATTCGATC,inactive: 0.0755
11,ACTGAAGT,inactive: -0.0277
12,GACAGGCA,inactive: -0.00243
13,GTGGGTAA,inactive: -0.0232
14,ATCATAAG,inactive: 0.149
15,TAGGCCAA,inactive: -0.0624
16,AGCCCCGA,inactive: -0.209
17,GAGCAGGC,inactive: -0.117
18,GGGATATA,inactive: -0.0036
19,AGCCGGGC,inactive: -0.217
20,GTTGGGAA,inactive: -0.0773
21,GAACAGAC,inactive: 0.172
22,ACCCCCGC,inactive: -0.25
23,AGCAGGAT,inactive: 0.0294
24,ATAATAAT,inactive: 0.192
25,ACATTCGA,inactive: 0.135

row,Sequence,PBM E-score
1,CGCTCAAC,inactive: -0.102
2,GCGCAGAA,inactive: -0.0554
3,AAGTATCT,inactive: 0.0556
4,GGCTGCAC,inactive: -0.132
5,GGCATTAA,inactive: -0.0379
6,AGTCAACC,inactive: -0.11
7,GATGCTTA,inactive: 0.00507
8,GGAGGTGA,inactive: -0.0714
9,AAACCTTG,inactive: 0.101
10,ATGTTTAC,inactive: 0.31
11,ATAACTAA,≥ 0.209
12,CACGTCAG,inactive: 0.0325
13,CGTAGGAG,inactive: -0.121
14,ACTGGTCC,inactive: -0.0339
15,GTGGATGA,inactive: 0.0588
16,CCCACCGG,inactive: -0.29
17,ACATGCAT,active: 0.376
18,AGAAGTCG,inactive: -0.0453
19,CATGTCTA,active: 0.359
20,GTGGGCTA,inactive: -0.126
21,CGCCTGTA,inactive: 0.0166
22,ATCCGGAG,inactive: -0.00172
23,AAACAATG,inactive: 0.256
24,AATAAATG,inactive: 0.186
25,AGACTTAA,inactive: -0.0298

row,Sequence,PBM E-score
1,CGGGCTGA,inactive: -0.224
2,CGGCGAAA,inactive: -0.107
3,AATCTTAA,inactive: 0.0317
4,GCCATAGA,inactive: -0.105
5,AATGGTGA,inactive: 0.0765
6,AGAAATAA,inactive: 0.0809
7,TACGCTGA,inactive: 0.0517
8,ACTTAGAA,inactive: 0.0598
9,GAGTCCCC,inactive: -0.298
10,ATCCAATC,inactive: 0.102
11,ACAGGAGT,inactive: 0.0982
12,AGCACGGC,inactive: -0.0403
13,CCCATAAA,inactive: -0.0849
14,CAGCCTGA,inactive: -0.135
15,ACTTTTAC,inactive: 0.123
16,ATTGACGA,≥ 0.125
17,ATGCAAAC,inactive: 0.0812
18,TTATGGAA,inactive: 0.103
19,GTCAGAGA,inactive: 0.0222
20,CGATAGAA,inactive: -0.00872
21,CTTGGCGC,inactive: -0.221
22,CATATTGG,inactive: 0.129
23,AATAAAGC,inactive: 0.0404
24,CAGTTCGC,inactive: -0.0821
25,GAAATCAA,inactive: -0.0249

row,Sequence,PBM E-score
1,TAAATCAA,inactive: 0.0882
2,GATCAGCA,inactive: 0.00808
3,AGACCCGC,inactive: -0.132
4,AGGATCGG,inactive: -0.0952
5,ACGGATCG,inactive: 0.00507
6,TGAGCCCA,inactive: -0.146
7,ATGAGACG,inactive: -0.0343
8,ACAGAGGA,inactive: 0.0112
9,ACCGGAGG,inactive: -0.152
10,AGACCCCA,inactive: -0.155
11,TGCTTACA,inactive: 0.191
12,ACGTATTG,inactive: 0.151
13,GCACGGAC,inactive: 0.0333
14,ACGGTCTA,inactive: -0.00318
15,GCTCCGGA,inactive: -0.114
16,AGCAACAG,inactive: 0.0919
17,CGCGTCTA,inactive: 0.0359
18,ACAAGAGT,inactive: 0.282
19,ATAAGAAG,inactive: -0.00655
20,ATGTTCAG,inactive: 0.295
21,CACTGTAA,inactive: 0.156
22,CTGACACA,inactive: 0.2
23,AGGTTCTA,inactive: 0.00811
24,CAAGCAGC,inactive: 0.0314
25,ATCCACGA,≥ 0.04

row,Sequence,PBM E-score
1,ATACGCCC,inactive: -0.159
2,GAGGGGGC,inactive: -0.341
3,CATTACTA,inactive: 0.164
4,CGATGTCC,inactive: 0.143
5,GGAGTTAA,inactive: 0.107
6,ATCAGTGA,inactive: 0.0654
7,AAAATGCT,≥ 0.12
8,CGTGGTCC,inactive: -0.111
9,CCTATGAC,inactive: -0.0544
10,AGTTGAGC,inactive: -0.00996
11,AAGTCGAG,inactive: -0.0576
12,CCACAGGG,inactive: -0.138
13,CTGGCGAA,inactive: -0.118
14,AACTAAGC,inactive: 0.00617
15,GAGACCCA,inactive: -0.173
16,ACCAGGTG,inactive: -0.033
17,GAAAATAA,inactive: 0.101
18,CATTGCTC,inactive: -0.0487
19,CAGTCTTA,inactive: 0.0412
20,GGCCCGCC,inactive: -0.302
21,GTTTAGAA,inactive: 0.121
22,GTTCATTA,inactive: 0.14
23,ATCTGAGC,inactive: 0.0229
24,AGAAGGAC,inactive: -0.11
25,CTGAGATC,inactive: -0.158

row,Sequence,PBM E-score
1,ATTCGTTC,inactive: 0.0639
2,GAAAACTC,inactive: -0.0668
3,TCATGCGA,inactive: -0.0125
4,ATTTCAAC,inactive: 0.159
5,CGAGGCAG,inactive: -0.13
6,AACTCTGC,inactive: -0.123
7,GGAAACTA,inactive: -0.0739
8,ATTTCGCG,inactive: -0.0534
9,CTCCGAGA,inactive: -0.176
10,TACCTCTA,inactive: 0.0716
11,ACGACGGA,≥ 0.0398
12,CAGGGAGA,inactive: -0.185
13,AAGTTGGG,inactive: -0.113
14,AACAATGT,active: 0.345
15,AATTGGGA,inactive: 0.0634
16,AACCTGTG,inactive: 0.0952
17,TAACGCTA,inactive: -0.0254
18,ATTTACTG,inactive: 0.192
19,ATGGCTTG,inactive: 0.0539
20,ACACTAGT,inactive: 0.203
21,AATGCCCC,inactive: -0.162
22,CCGCGCAA,inactive: -0.0683
23,CGATTCGA,inactive: 0.0131
24,CTGGGCCC,inactive: -0.293
25,CCTAGTCG,inactive: -0.0446

row,Sequence,PBM E-score
1,CTACGAGC,inactive: -0.0318
2,ACGCTGTC,inactive: 0.0456
3,ATATTTTC,inactive: 0.129
4,ACTCAAGA,inactive: -0.0159
5,CTGCACAC,inactive: 0.0423
6,CGACGCTC,inactive: -0.151
7,GTTTGCAA,inactive: 0.169
8,AGGTTGTC,inactive: 0.267
9,ATCTCTGC,inactive: -0.0013
10,AGATAGCG,inactive: -0.0272
11,AACGACCG,inactive: -0.0242
12,AGTAAATA,inactive: 0.194
13,CAATCTTC,inactive: 0.0296
14,GTGCAGTA,inactive: -0.0289
15,GCCAACAC,inactive: 0.0511
16,GAGCTGGA,inactive: -0.102
17,ATCACTCC,inactive: 0.00786
18,ATACGCAG,inactive: -0.0118
19,CACGCCCC,inactive: -0.244
20,TGGTTTAA,≥ 0.118
21,ATCTCGTG,inactive: 0.0492
22,ATTCCCCC,inactive: -0.246
23,CAAATATC,inactive: 0.166
24,GTACCAGA,inactive: 0.149
25,GATAGCTA,inactive: 0.0116

row,Sequence,PBM E-score
1,CGACTGAC,inactive: -0.0927
2,ACGCTTCT,inactive: -0.12
3,CCCGTACA,inactive: 0.0807
4,GCAGCAAC,inactive: 0.00771
5,TATGTCCA,inactive: 0.214
6,ATGAACCC,inactive: -0.016
7,CACTTTGC,inactive: 0.0162
8,CGGGAGCA,inactive: -0.149
9,GGTGCAGA,inactive: -0.108
10,AATTGCCT,inactive: -0.0191
11,CCGTCTTC,inactive: -0.177
12,AGACCCAT,inactive: -0.068
13,CTACCTGA,inactive: 0.0418
14,CACCAAAG,inactive: -0.0937
15,CTCCCTGA,inactive: -0.0947
16,AAGCTAAC,inactive: 0.137
17,ATATTGAG,inactive: 0.0745
18,CAACTAGG,inactive: 0.0603
19,GATGCAGC,inactive: -0.0861
20,CAATTTCC,inactive: 0.023
21,ATACATCC,inactive: 0.276
22,AACTTCCA,inactive: -0.0702
23,AATCCATT,inactive: 0.102
24,AGGCCGAT,≥ -0.0908
25,AGCGCTGG,inactive: -0.168

row,Sequence,PBM E-score
1,CGTACTTA,inactive: 0.135
2,CACCACCC,inactive: -0.0973
3,CAACCGCA,inactive: -0.00954
4,ATGATCTC,inactive: 0.0147
5,CGTGAGTA,inactive: 0.0229
6,AAGCTCGC,inactive: -0.14
7,GACCGCCA,inactive: -0.199
8,AACTTGGG,inactive: -0.156
9,GGAATCTA,inactive: -0.0141
10,CACTCCCC,inactive: -0.125
11,CCATGGGG,inactive: -0.157
12,CGAGGTGA,inactive: -0.0862
13,GAGAAGGC,inactive: -0.233
14,AAATAGTC,inactive: 0.0311
15,AGCCAATA,inactive: 0.0164
16,CACTCTGG,inactive: -0.0952
17,GCCGTAAC,inactive: -0.00927
18,CTGTTAAA,inactive: 0.108
19,CGCTGCAC,inactive: -0.11
20,GGTTTGTA,inactive: 0.0967
21,ACTAATAC,inactive: 0.199
22,CGGCCTTC,inactive: -0.226
23,CCATGTAC,active: 0.411

# Source: the supplement of paper PMC3724861
